Reference: PubChem BioAssay (NCI)
Several values for one entry are separate records, joined by “and”; a condition that tells them apart may be missing. Equal values may be shown once.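 Test compounds were applied to cells in 96-well plates for 48 hours at 5 doses. GI50 = concentration required for 50% inhibition of growth. TGI: concentration producing complete growth inhibition.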 Numbered stars: 1 amine (or outer) side, 2 acyl side, 3 side chain; on linkers, the order of the positions; unused ones are H or OH. Peptide text beside a SMILES is read from it. * marks the point of attachment. γGlu = O=C(O)[CH](CCC(=O)[*:2])N[*:1]; NHOH = ON*

System: NCI-H322M lung
Experiment: growth of human tumour cells (NCI), 48 h

| SMILES | TGI | GI50 |
| --- | --- | --- |
| O=c1c2cc(O)c(O)cc2oc2cc(O)c(C3OC(CO)C(O)C(O)C3O)c(O)c12 (configuration not stated) | > 100 µM | – |
| CCC(C)[C@@H]1NC(=O)[C@@H]2CCCN2C(=O)C(CC(O)CO)OC(=O)CCNC(=O)[C@H](C)N(C)C(=O)[C@H](C(C)C)N(C)C1=O (some centres not stated) (HELM PEPTIDE1{[CCC(C)[C@H](N[*:1])C(=O)[*:2]].[meV].[meA].[bAla].[O=C(C(CC(O)CO)O[*:1])[*:2]].P}$PEPTIDE1,PEPTIDE1,1:R1-6:R2$$$V2.0) | > 100 µM | – |
| CCN(CCO)CCCOc1ccc2c(Nc3cc(CC(=O)Nc4cccc(F)c4)[nH]n3)ncnc2c1 | > 100 µM | 31.8 µM |
| Fc1ccc(-c2c(-c3ccncc3)[nH]c3nccnc23)cc1 | > 25 µM | 12.7 µM |
| O=C1c2ccccc2C(=O)c2c1ccc1c2N=C(c2ccc(Br)cc2)CC(c2cccc3ccccc23)N1 (configuration not stated) | > 100 µM | – |
| CNN1C(=O)c2c(C)c(C)c(C#N)c(N)c2C1=O | 75 µM | – |
| O=C(CSc1ncc(-c2ccccc2)n1-c1ccccc1)Nc1ccc(-c2nc3ccccc3s2)cc1 | > 100 µM | 6.26 µM |
| O=c1c2ccccc2nc2sc(/N=C/C=C/c3ccccc3)nn12 | > 100 µM | – |
| CCOC(=O)c1cc(-c2ccccc2)[nH]c1N/N=C/c1c(Cl)cccc1Cl | > 100 µM | 11.8 µM |
| Nc1ccc(C(=O)Nc2ccccc2N)cc1 | > 100 µM | – |
| CN(C)CCCN1c2ccc([N+](=O)[O-])cc2CCc2cc([N+](=O)[O-])ccc21 | 27.3 µM and 29 µM | – |
| Cc1ccc(S(=O)(=O)N/N=C2\CC(C)OC3=C2CCCCCC3)cc1 (configuration not stated) | 44.5 µM | – |
| COC(=O)C1(C)CCCC2(C)c3cc(OC)ccc3C(=O)C(Br)C12 (configuration not stated) | > 10 µM | – |
| CN1CCN(c2ccc(Nc3ncc4cc5n(c4n3)C3(CCCCC3)CNC5=O)nc2)CC1 | 19.2 µM | 2.22 µM |
| NC(=O)c1ncn(Cc2ccccc2)c1CNC(N)=S | > 100 µM | – |
| CNC(C)Cc1ccccc1OC (configuration not stated) | > 100 µM | – |
| CCOC(=O)C(NC(=O)c1ccccc1)(Nc1ccc(S(=O)(=O)Nc2cc(C)nc(C)n2)cc1)C(F)(F)F (configuration not stated) | > 100 µM | – |
| CNCCNc1nc2ccccc2c2c(=O)c3cccc(C)c3sc12 | 9.42 µM | 2.64 µM |
| CC(=O)C(C=O)C(C)=O.CC(=O)CC(C)=O.CC(=O)CC(C)=O.[Ru] | 60.1 µM | 18.3 µM |
| N#CC1CCCCC1NC1(C#N)CCCCC1 (configuration not stated) | > 100 µM | – |
| Nc1nnc2oc3ccc4ccccc4c3cc1-2 | > 100 µM | – |
| COc1cccc(/C=C\c2ccnc3ccccc23)c1 | > 10 µM | – |
| C#CC(O)/C=C/C(O)CCCC(O)CC#CC(O)C#CC(O)CCCC(O)/C=C/CCCCCC(=O)CCCCCCCCCCCCCC(O)C(O)C#CC(=O)O (configuration not stated) | > 50 µM | – |
| Fc1ccc(C2C3CCOc4c(ccc5ccccc45)C3=NN2c2ccccc2)cc1 (configuration not stated) | > 100 µM | > 100 µM |

| SMILES | TGI | GI50 |
| --- | --- | --- |
| CCOC(=O)CC(=O)CSc1c(-c2ccccc2)c(=O)n(-c2ccccc2)c(=S)n1-c1ccccc1 | > 100 µM | – |
| COc1cc2c(cc1O)C1CC(CC3CCCCN31)OC(=O)/C=C\c1ccc(O)c-2c1 (configuration not stated) | 68.1 µM | – |
| CC(C)[C@H](C(=O)O[C@@H]1/C=C/C(=O)O[C@@H](C)CCC/C=C/[C@@H]2C[C@H](O)C[C@H]21)N(C)C | > 100 µM | 14 µM |
| CC1CC(Br)C(=O)O1 (configuration not stated) | > 100 µM | – |
| Cc1c/c(=N/NC(=O)c2ccncc2)n2nc(N)sc2n1 | > 100 µM | – |
| Cc1c2cc[n+](C)cc2c(C)c2c1oc1ccccc12 | 35 µM | – |
| N[C@@H](CSSC[C@H](N)C(=O)N1CCn2cc(-c3ccccc3)nc2[C@@H]1CC1CCCCC1)C(=O)N1CCn2cc(-c3ccccc3)nc2[C@@H]1CC1CCCCC1 | 5 µM | 1.83 µM |
| C=C1CC(C)(COc2ccc3c(C)cc(=O)oc3c2)OC1=O (configuration not stated) | 21.8 µM | – |
| Fc1ccc(-c2nn3c(COc4ccc(Cl)cc4Cl)nnc3s2)cc1Oc1ccccc1 | 35.9 µM | 16 µM |
| COC(=O)c1ccccc1C1=C([N+](=O)[O-])C(c2cccc(Br)c2)C(C#N)=C(N)O1 (configuration not stated) | > 100 µM | – |
| CC(=O)NC(CCCNC(=O)OCc1ccccc1)C(=O)O (configuration not stated) | > 100 µM | – |
| N#Cc1ccc(/C=C/C(=O)c2ccccc2)cc1 | 39.2 µM and 29.4 µM | 18.3 µM and 15.1 µM |
| Cn1cnc2c1c(=O)n(CCNCCO)c(=O)n2C | > 100 µM | – |
| O=C(c1ccccc1)N1CCC(Nc2nccs2)O1 (configuration not stated) | > 10 µM | – |
| Cc1[nH]n(-c2ccccc2)c(=O)c1C(N(CCc1ccccc1)C1=NCC(C)S1)(C(F)(F)F)C(F)(F)F (configuration not stated) | 79.9 µM | – |
| COc1cc(NC(=O)c2ccccc2Nc2ccnc(C(F)(F)F)c2)cc(OC)c1OC | > 100 µM | > 100 µM |
| N#C/C(C(=O)Nc1ccc(Cl)cc1)=C(/N)N1CCOCC1 | > 100 µM | – |
| Nc1nc(OCC2CCCCC2)c2[nH]cnc2n1 | 66 µM | – |
| O=C1CC[C@@H](NC(=O)Cc2ccccc2)C(=O)N1 | > 100 µM | – |
| C=C(CO)[C@H]1Oc2ccc(C(C)=O)cc2[C@@H]1O | > 100 µM | – |
| CCn1c(O)c(C=Nc2ccccc2)s/c1=N/Nc1nc(-c2ccc(O)c(O)c2)cs1 | > 100 µM | – |
| N=C1C(c2nc3ccccc3s2)=C(O)CN1c1cc(Cl)cc(Cl)c1 | > 100 µM | > 100 µM |
| NCCNCCNc1ccc(NCCNCCN)c2c1C(=O)c1c(O)ccc(O)c1C2=O | > 100 µM | – |
| COC1=CC2CCN3Cc4cc5c(cc4C(C1O)C23)OCC5 (configuration not stated) | 15.6 µM | 2.54 µM |

| SMILES | TGI | GI50 |
| --- | --- | --- |
| COC(=O)[C@]12CC[C@@H](C)[C@H](C)[C@@H]1C1=CC[C@@H]3[C@@]4(C)CC(=O)[C@H](O)[C@@](C)(CO)[C@@H]4C(=O)C[C@@]3(C)[C@]1(C)CC2 | 26.2 µM | 12.3 µM |
| O=C(CSc1nc2ccc(I)cc2c(=O)n1Cc1ccccc1)NN1C(=O)c2ccccc2C1=O | 75.5 µM | – |
| CC(=O)N(CCCCNC(=O)C(F)(F)F)CCCNC(=O)C(F)(F)F | > 100 µM | – |
| COC(=O)c1ccc2c(C(=Nc3ccc(N(C)C(=O)CN4CCN(C)CC4)cc3)c3ccccc3)c(O)[nH]c2c1 | 56.2 µM and > 100 µM | 4.16 µM and 17.1 µM |
| c1cc2c(c(NC3=NCCN3)c1)CCCC2 | > 100 µM | – |
| Cc1ccc(S(=O)(=O)CC2(Br)CCc3ccccc3C2=O)cc1 (configuration not stated) | > 100 µM | – |
| COC(CC1(OC)OC(=O)C=C1N)OC (configuration not stated) | > 100 µM | – |
| COc1ccc(/C=C2\CCc3cc(OC)c(OC)cc3C2=O)cc1 | > 10 µM | – |
| Oc1cccc(-c2nc(-c3ccccc3)[nH]c2-c2ccncc2)c1 | > 25 µM | > 21.4 µM |
| Cc1ccc(NC(=O)C(=O)CC(=O)c2ccccc2)cc1C | > 100 µM | – |
| CC(C)COC(c1ccc2c(c1)OCO2)C(C)Br (configuration not stated) | > 100 µM | – |
| COc1ccc(/C=C2\CCC(Cc3ccccc3)(CN(C)C)C2=O)cc1 (configuration not stated) | > 100 µM | – |
| Cc1ccc2nc3c(C)cc(=O)cc-3sc2c1 | > 100 µM | – |
| NCC1(N2CCOCC2)C2CCCC21CNc1ccccc1 (configuration not stated) | > 100 µM | – |
| CC(=O)OCC1OC(Oc2cc(C)c(O)cc2C/C=C(\C)CC/C=C(\C)C[C@@H](C=C(C)C)OC(C)=O)C(O)C(OC(C)=O)C1OC(C)=O (some centres not stated) | > 50 µM | – |
| N#CC1=C(N)OC(c2cccc([N+](=O)[O-])c2)C1(C#N)C#N (configuration not stated) | 30.8 µM | – |
| COC(=O)/C(=N/NC(C)(C)C)C(C(=O)OC)C(=O)C(=O)Nc1nc2ccc([N+](=O)[O-])cc2s1 (configuration not stated) | > 100 µM | – |
| CS(=O)(=O)OCCN(CCOS(C)(=O)=O)c1ccc(/C=N/Nc2ncnc3nc[nH]c23)cc1 | 55.6 µM | – |
| CCOC(=O)CNC(=O)C(CCC(=O)NO)NC(=O)CCC(N)C(=O)O (configuration not stated) (γGlu-Glu(NHOH)-Gly-OEt; configuration not given here) | > 100 µM | – |
| COC(=O)/C=C(\C)CC/C=C(\C)CCC(O)C(C)(C)O (configuration not stated) | > 100 µM | – |
| CC(C)NC(=O)OCc1c(COC(=O)NC(C)C)c(-c2cc[n+](COC(=O)C(C)C)cc2)n2c1CCC2 | > 100 µM | – |
| COC(=O)N/N=C(/c1nc2ccc([N+](=O)[O-])cc2[nH]c1=O)C(O)c1ccc(OC)c(OC)c1 (configuration not stated) | > 100 µM | – |
| CCO[C@]12CCC[C@H]1[C@@H]1C(=O)c3ccccc3C(=O)C1=C(C)O2 | > 100 µM | – |
| CCc1ccc2c(c1)C(=O)c1c-2n(CCCN)c(=O)c2cc([N+](=O)[O-])ccc12 | 2.75 µM | 1.43 µM |

| SMILES | TGI | GI50 |
| --- | --- | --- |
| C#Cc1ccc(-n2c(/C=C/c3ccc4ccccc4c3)nc3ncccc3c2=O)cc1 | > 100 µM | 7.3 µM |
| COc1ccc(/C=C2/CN(CCC#N)C/C(=C\c3ccc(OC)cc3)C2=O)cc1 | > 100 µM | 4.6 µM |
| CC1(C=O)CCC23COC4(CCC5C6(C)CCC(OC7OCC(OC8OC(CO)C(O)C(OC9OC(CO)C(O)C(O)C9O)C8OC8OCC(O)C(O)C8O)C(O)C7OC7OC(CO)C(O)C(O)C7O)C(C)(C)C6CCC5(C)C4(C)CC2O)C3C1 (configuration not stated) | 2.15 µM | – |
| CC[C@@]1(O)C(=O)NCc2c1cc1n(c2=O)Cc2cc3c(NC(C)=O)cccc3nc2-1 | > 100 µM | > 100 µM |
| N#CC1C(=O)NC(=O)C1=O (configuration not stated) | > 100 µM | – |
| Cc1cc(-c2cscn2)c(O)c([N+](=O)[O-])c1 | > 100 µM | – |
| CCc1ccc(/C=C/C(=O)C2CN(CC)CCC2(O)/C=C/c2ccc(CC)cc2)cc1 (configuration not stated) | 24.7 µM | – |
| CCSc1nc(-c2cccs2)nc2ccc(I)cc12 | > 100 µM | – |
| COc1ccc2c(c1)N(CCO)C1=C(C(=O)OC1)C2c1ccc(OC)c(OC)c1 (configuration not stated) | > 100 µM | 4.57 µM |
| COc1ccc2nc3cc(Cl)ccc3c(Nc3cc(C(C)C)c(O)cc3C)c2c1 | 5.46 µM | 2.01 µM |
| N=c1oc2ccc(Cl)cc2cc1C(N)=O | 91.8 µM | – |
| Cc1cc(C#Cc2ccccc2)ccc1-n1c(/C=C/c2cc(O)ccc2O)nc2ccccc2c1=O | 5.48 µM | 1.62 µM |
| COc1cc(Cn2c(SCC(=O)Nc3ccc(Cl)cc3)nc3ccccc3c2=O)cc(OC)c1OC | > 100 µM | 19.1 µM |
| C[N+](C)(C)CCN[N+]1(C)CCCc2ccccc21 (configuration not stated) | > 100 µM | – |
| CSc1ccc(/C=C2\N=C(c3ccccc3)N(/N=C3\C(=O)Nc4ccccc43)C2=O)cc1 | > 100 µM | – |
| Cc1ccc(N=NC(C2=NC(=O)CS2)c2nc3ccccc3[nH]2)cc1 (configuration not stated) | > 100 µM | – |
| O=C1N=C(Nc2nc(-c3csc(NC4=NC(=O)/C(=C\c5ccc(Cl)cc5)S4)n3)cs2)S/C1=C/c1ccc(Cl)cc1 | 23.3 µM | 7.78 µM |
| Cn1cc(C2=C(c3c(S(C)=O)n(C)c4ccccc34)C(=O)NC2=O)c2ccccc21 (configuration not stated) | > 25 µM | 4.38 µM |
| CCCCCC1=C2C(c3ccc(OC)cc3)=C(N)C(c3ccc(OC)cc3)=C3NC(=O)C(C=C1)C32 (configuration not stated) | > 100 µM | – |
| CCN1C(=O)N(CC)C2C1NN=c1s/c(=C\c3ccc(OC)cc3)c(=O)n12 (configuration not stated) | > 100 µM | 0.607 µM |
| COC(=O)C1=C(\O)C[C@@]2(C)CC[C@@H](C(=O)OC)C2C/C=C\1C(=O)OC (some centres not stated) | > 100 µM | – |
